# The full ranking holds about 16,000 sequences; the median of “Z-score” is about -0.37, and the highest 2% start at about 3.2. Some of the results follow.
# Tested on: RBM10 RRM1-ZnF (GST-tagged construct)
# Assay: RNAcompete 7-mer binding Z-score; higher = stronger binding preference
# Outline: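 A one-sided Z-score for enrichment, taken across the probes containing each heptamer motif, was assigned to every such motif. The RNA came from a designed pool of 241 399 sequences up to 41 nt (1.5 nmol), bound by 20 pmol of GST-tagged RBM10 constructs in 1 ml Hepes pH 7.8 buffer with glutathione Sepharose beads for 30 min at 4°C. Four 2-min washes at 4°C preceded identification of bound RNA by microarray hybridisation.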
row,Sequence,RNAcompete 7-mer binding Z-score
1,GGCUGCC,0.153
2,AUUACCG,-0.694
3,AUUGUUC,-0.629
4,AUUAUUA,-0.483
5,AAUGACC,-0.6
6,UGACUUA,-0.522
7,UGCCGAC,-0.652
8,AAUCCCA,-0.766
9,CGACACA,-0.405
10,UGCUAUU,-0.659
11,CACGGUC,-0.36
12,CCUUCGC,-0.766
13,CAGUACG,-0.259
14,UAAAAUU,-0.483
15,UAAGCAU,-0.561
16,UAUGAGA,0.17
17,GCCAUCU,-0.675
18,AAUUGAG,0.218
19,UAAACAG,-0.191
20,CCCGCCU,-0.513
21,CUCAAGA,-0.6
22,GAUAAGA,0.465
23,CCAAGUC,-0.678
24,GAACCAG,-0.0934
25,GUAAAUG,0.768

row,Sequence,RNAcompete 7-mer binding Z-score
1,CACGCUA,-0.62
2,UGUACAG,0.205
3,AUGACGG,1.39
4,GGGAUUU,1.51
5,UCUACUG,-0.623
6,CCUAGAC,-0.795
7,UGAUAUG,0.397
8,UCAUUCA,-0.737
9,UCCCCGC,-0.314
10,GGACUCG,0.0528
11,CAGCGGC,0.0983
12,UUGGUCC,-0.561
13,AAGGCAU,0.79
14,GGGUGUG,3.76
15,ACGCGGG,1.63
16,CGCGGUG,0.94
17,AUGAGAA,0.277
18,UGAAAAU,-0.0869
19,CAGAAUU,-0.327
20,ACGGGGC,2.26
21,UAAGAAA,-0.178
22,GACCCAU,-0.876
23,AUGAGGC,0.969
24,UACGCUC,-0.506
25,UGGUCUA,0.03

row,Sequence,RNAcompete 7-mer binding Z-score
1,CCUCACG,-0.701
2,AGGGUCU,0.667
3,GGCUCGA,-0.0285
4,AAGAGAC,0.3
5,GAAGGUC,1.25
6,CACCGCA,-0.548
7,CAUGACU,-0.649
8,CAGCUAG,-0.285
9,UAGAAUG,0.92
10,CGGCCUC,-0.617
11,CAGAUCU,-0.707
12,AGAGGUG,2.04
13,CAAGCGG,0.982
14,GAUCAUC,-0.617
15,GGUACUU,0.0398
16,AGAAGCG,0.543
17,AUGCUGC,-0.435
18,CCAUAUC,-0.75
19,UUUCUCG,-0.727
20,CCGAGGC,-0.0902
21,UAAUCUA,-0.571
22,UGUAUGA,-0.0447
23,AUCCUAC,-0.87
24,AGUAGUA,0.0268
25,CAAAAGG,0.888

row,Sequence,RNAcompete 7-mer binding Z-score
1,CCGCCUA,-0.61
2,AUGUGGC,0.586
3,CUGCGGG,1.52
4,GGGGCAC,2.36
5,CCGGAGA,0.131
6,UAUGCCC,-0.6
7,UCCUGCC,-0.733
8,AAACGUA,-0.262
9,GGCGGGC,2.11
10,CGGAACC,-0.22
11,AAUUAUA,-0.464
12,UAAUCGU,-0.604
13,UCCCCGG,-0.324
14,GCAUUGU,-0.366
15,GUACGUC,-0.262
16,AAUGCUA,-0.425
17,GAAGCGU,0.446
18,ACCCUUC,-0.863
19,AGCUCGU,-0.48
20,UUGCUCG,-0.675
21,AAGCUUG,-0.519
22,ACGGAAU,1.09
23,CUUCGUG,-0.636
24,CGCGGGG,2.15
25,UGAUUGA,0.0105

row,Sequence,RNAcompete 7-mer binding Z-score
1,CAUACCC,-0.808
2,GGUGGUA,2.95
3,AGUCUAC,-0.584
4,ACCGAGG,0.699
5,GCCCGUA,-0.681
6,CCCUAGA,-0.665
7,GAACGCU,-0.487
8,AUGAAGA,0.547
9,CAACCCC,-0.418
10,GUAUCGU,-0.204
11,GUUGUAG,0.985
12,GCAGAUA,-0.0122
13,CUCAAUU,-0.805
14,AAUCUUG,-0.805
15,ACUCUGG,-0.451
16,AAGCAAG,0.423
17,UUGACUG,-0.513
18,UCUUGUG,-0.578
19,UCGCGUU,-0.62
20,CUGGGGA,1.76
21,UGAAAAA,-0.292
22,UAUUGUU,-0.542
23,UUUUGGC,-0.318
24,CCAGUCA,-0.526
25,UUGGUGA,1.7

row,Sequence,RNAcompete 7-mer binding Z-score
1,ACAGGUA,2.37
2,GGUAUAG,2.52
3,UUUAGAG,0.111
4,UGAAGAU,0.196
5,UGACGUA,0.0268
6,CCAGGUU,0.082
7,AUAUGAA,-0.129
8,GUAGCCA,0.00729
9,CCAAAUU,-0.889
10,GUACGGC,0.153
11,UCUACUU,-0.932
12,GGCGCCA,-0.0609
13,AGUUGGC,0.579
14,GAUUGAC,-0.129
15,CGGUCCG,-0.438
16,ACUAACU,-0.737
17,CGCCUUU,-0.863
18,AGUCCUA,-0.617
19,GGCUCUC,-0.396
20,AUACAGG,1.23
21,UCUCUGG,-0.49
22,AGGCUUC,-0.613
23,GGUAACU,0.582
24,CUUCUGA,-0.75
25,CUGAAUA,-0.506

row,Sequence,RNAcompete 7-mer binding Z-score
1,CACAGGG,2.18
2,AUCGAUA,-0.334
3,CCGUGCC,-0.532
4,UCAUCGC,-0.61
5,AUUGCGG,0.556
6,AUAUAGC,-0.357
7,UUACGUA,-0.568
8,CGCUGCU,-0.509
9,CUUUGUA,-0.909
10,CAUAUCU,-0.675
11,CGCGCUA,-0.509
12,GUGUUCU,-0.584
13,UGUGACC,-0.149
14,UGGGAAU,2.53
15,ACAGCAA,-0.272
16,GAUUCCG,-0.675
17,AGCGUUG,0.179
18,CGGUCUC,-0.574
19,UCGUCAU,-0.685
20,CGUUUUC,-0.717
21,UCUCAUU,-0.85
22,GUCGGCA,-0.0609
23,CAAGUAG,0.264
24,CACAGUU,-0.642
25,UAGAUCA,-0.00571

row,Sequence,RNAcompete 7-mer binding Z-score
1,ACUGAUG,0.0203
2,CGCUGUC,-0.613
3,UACUUUU,-0.867
4,AAAGUUG,0.248
5,UGAAGCU,-0.262
6,UAGCCGG,-0.288
7,AUUAGUG,0.42
8,GGGAAUC,1.58
9,CGACGGG,1.62
10,AAUCAUU,-0.665
11,UCAGCUA,-0.607
12,CGUUAUU,-0.561
13,ACGCCCG,-0.591
14,UCCCUCA,-0.701
15,CAGUUAU,-0.626
16,UCGAGGG,1.95
17,AUUGGAU,0.904
18,CAUAUCG,-0.629
19,GGGGCUG,2.75
20,CCACUAA,-0.805
21,AAGGUUG,3.49
22,GCGACCC,-0.545
23,GCCGCGA,-0.422
24,AACAUUU,-0.646
25,CGAUCAU,-0.581

row,Sequence,RNAcompete 7-mer binding Z-score
1,CGACUAU,-0.617
2,GCUGGUC,0.105
3,GACCGGG,1.26
4,ACGCUGA,-0.431
5,GCUACAA,-0.422
6,GCCCACA,-0.454
7,UUAGCCC,-0.707
8,GUUGUCG,-0.171
9,CUUGAUA,-0.73
10,UCGUGGA,0.8
11,GGAACAG,2.02
12,CAUUAUU,-0.798
13,UACCUGA,-0.662
14,GUCAUAC,-0.35
15,AUAAACA,-0.48
16,CCACUAG,-0.519
17,AACGACU,-0.457
18,GCGAGUU,-0.152
19,CCUUUAC,-0.912
20,UGCAUCA,-0.522
21,AUUCCAC,-0.818
22,UAUAUAU,-0.366
23,GAACAUC,-0.587
24,AAUUCUU,-0.798
25,UAAGAGG,1.28

row,Sequence,RNAcompete 7-mer binding Z-score
1,CAUAUCA,-0.678
2,UAUUAGG,0.602
3,GCAAACG,0.03
4,ACAAGGA,1.78
5,CUAGAAC,-0.357
6,UGCCAUG,-0.496
7,ACCUAUC,-0.928
8,CUCAAAG,-0.418
9,UGAGACG,0.579
10,GGGUUCU,0.998
11,AAUUCGC,-0.561
12,CUCCGCC,-0.451
13,GCUGAGA,0.118
14,GGGCCGC,0.29
15,UGGCGCA,0.439
16,AGAACGU,-0.383
17,UGUUCGU,-0.464
18,UAUAACA,-0.389
19,AAAGACC,-0.672
20,AGGCGUG,0.833
21,ACUGAUA,-0.353
22,UUAAUUG,-0.477
23,UAGAUAG,0.361
24,UAACCAA,-0.542
25,GGUUCCG,0.199

row,Sequence,RNAcompete 7-mer binding Z-score
1,GCUAAUC,-0.526
2,GUGGACU,1.24
3,UAGUAAG,0.404
4,AGCUAUU,-0.629
5,GAGUCCA,-0.376
6,AUUUAUG,-0.23
7,AUCAAUU,-0.665
8,GAUGAGU,1.06
9,UCCCGUC,-0.659
10,GCCUCGU,-0.568
11,CACGGCG,-0.129
12,UCCCUAA,-0.691
13,AGUGAGA,1.13
14,CCUUGUU,-0.86
15,GGUGUGG,4.32
16,GAACGGA,2.03
17,CACUCUG,-0.733
18,CUCGACU,-0.802
19,UUUAGGU,0.397
20,GGAUAUU,1.16
21,CGCGGAA,0.553
22,AAUGGGG,4.2
23,AUGCUCA,-0.571
24,AGGACUU,-0.262
25,UCACCGG,-0.136

row,Sequence,RNAcompete 7-mer binding Z-score
1,AAAAAAG,-0.0479
2,GGUGACG,2.1
3,AGUAACG,0.293
4,UGCACCU,-0.581
5,GUAGGGA,3.87
6,GCGCAGU,-0.00246
7,GUCGCGC,-0.249
8,GCUACCG,-0.324
9,GGCGUUA,0.28
10,AAGUCGC,-0.266
11,GCGGUUU,0.959
12,CGAGGUA,1.57
13,UAUCGAA,-0.389
14,AUGACAA,-0.103
15,GGGUCCA,0.751
16,UGUUAAU,-0.613
17,UAGCCAG,-0.259
18,CGGGUGG,3.64
19,CUAUCAU,-0.532
20,ACUCACG,-0.503
21,CAGGGAC,1.49
22,UCCACAA,-0.678
23,GGACGCC,0.0138
24,UGACUGG,1.43
25,ACCUGAU,-0.863

row,Sequence,RNAcompete 7-mer binding Z-score
1,AUAUCGG,0.183
2,GUUUCAG,-0.116
3,ACAAGUC,-0.591
4,AGUGCAU,-0.0772
5,UCAAGUC,-0.516
6,UUGGCUC,-0.516
7,CGAGCUA,-0.0252
8,UUGAAAC,-0.587
9,CGGAGCG,1.23
10,AUUGGGA,2.83
11,GCGUAAA,0.095
12,UUAUACU,-0.701
13,GGGAUGA,4.17
14,UAGUGCA,0.296
15,GUAGUAU,-0.129
16,UUUUAUC,-0.873
17,UCUGGGA,0.508
18,AUGACGC,-0.383
19,ACUUAGU,-0.435
20,CGGUCCC,-0.253
21,UUCUUUG,-0.659
22,AAGAUGU,0.303
23,ACAUGAA,-0.0317
24,UCGCGCC,-0.711
25,CUCUGCG,-0.772

row,Sequence,RNAcompete 7-mer binding Z-score
1,GGAUUUG,1.18
2,CUGGUGU,0.628
3,CUUCCAG,-0.675
4,CUUACAC,-0.841
5,GCCAGAU,-0.467
6,UCCACCG,-0.503
7,UUGUCCC,-0.604
8,GUGAUAA,0.449
9,GAGUAAC,0.16
10,GUCUUCA,-0.565
11,CCCGGCG,0.0853
12,GAUCUCA,-0.652
13,UCUUACG,-0.779
14,GAAGCCC,-0.62
15,GUAUUUG,-0.132
16,CGUUAAU,-0.487
17,AGCGAGC,2.93
18,GUCUUGG,0.186
19,CGUCCGG,-0.396
20,CGCGGCA,-0.184
21,GAUUUGG,1.55
22,UUUACCG,-0.808
23,AACCAUG,-0.415
24,UUACCGG,-0.36
25,GGGCCAA,0.511

row,Sequence,RNAcompete 7-mer binding Z-score
1,UUAUGGG,1.89
2,CUAGCUG,-0.386
3,UGGGAUG,3.61
4,CCGGUCC,-0.568
5,AACCUUA,-0.818
6,GCGGACU,0.313
7,AAGCUAC,-0.311
8,CAGUGUU,-0.506
9,GGUAUCA,0.699
10,AGAAAAA,0.0365
11,UACAGGG,2.22
12,AAUAGUG,0.131
13,CGAUCGU,-0.629
14,GGCUAAU,0.0788
15,CCCAUAA,-0.815
16,GAACGAC,-0.184
17,UGUGGGU,3.46

# From the supplement of paper PMC5499739
